According to ChEMBL document CHEMBL4888484, “Replenishing the malaria drug discovery pipeline: Screening and hit evaluation of the MMV Hit Generation Library 1 (HGL1) against asexual blood stage Plasmodium falciparum ,using a nano luciferase reporter read-out” (2022):
About 540 (0.36%) of roughly 150,000 compounds showed an effect of 50% or more. This is one part of the list.

system: Plasmodium falciparum; assay: Primary screen in NF54 nanoGlo assay, in single point, at 2uM, 72h; a lower Z score goes with more inhibition; format: functional, Erythrocyte; conditions: timepoint 72 hour

Row | Compound | % Inhibition [%] | Z score
1 | COCc1c(C(=O)NCCN2CCCC2)cnn1-c1ncc2c(n1)-c1ccccc1CCC2 | -1 | 0.18
2 | CCN(Cc1ccccc1)C(=O)c1cc(NS(=O)(=O)c2cccs2)ccc1N1CCNCC1 | -14 | 1.7
3 | COC(=O)c1cccc([C@H]2CC(=O)Nc3c2cnn3CC2CCCCC2)n1 | -8 | 0.75
4 | O=C(C1CCN(c2cncnc2N2CCCCC2)CC1)N1CCOCC1 | -3 | 0.63
5 | CC(C)(C)OC(=O)NC1(C(=O)O)CCC(C(F)F)CC1 (centres undefined) | -5 | 0.94
6 | O=S1(=O)CC(CCNc2ncnc3sccc23)C1 | -5 | 0.86
7 | CCCc1cc(C(=O)N2CCC(c3nc(C(C)C)no3)CC2)[nH]n1 | -9 | 1.13
8 | CC1(C(=O)N[C@@H]2C[C@@H]3CC(CO)C[C@@H]32)CC2CCC1C2 (some centres undefined) | 7 | -1.45
9 | COc1ccc(CN2C(=O)COC[C@H]2C(=O)N2CCCCC2)c(OC)c1 | -2 | 0.19
10 | CC(C)c1nn(C)cc1-c1noc(C2(C(F)(F)F)CCC2)n1 | -4 | 0.73
11 | COc1ncnc(C)c1-c1ccc(C(=O)N2Cc3nc(C)[nH]c(=O)c3C2)cc1 | -8 | 0.81
12 | O=C(NCCc1ccc(F)cc1F)N[C@H]1CCOC2(CCCC2)C1 | 6 | -0.76
13 | C=C(C)COc1ccccc1CN[C@@H](CC)c1nc(C)no1 | -10 | 1.37
14 | COc1cccc(NC(=O)Cc2nnc(-c3sccc3C)o2)c1 | -3 | 0.28
15 | Cc1ccc(Oc2nc(N3CCC(C)CC3)nc3c2CN(C(=O)Cc2ccccc2)CC3)cc1 | -2 | 0.28
16 | CC(CCC1CC1)NC(=O)[C@H]1CCC(=O)N1 (some centres undefined) | 0 | 0.03
17 | COc1ccc(N2COC3c4cccc5cccc(c45)C32)cc1 (centres undefined) | 5 | -0.86
18 | C#CCOC[C@@H](O)CN(Cc1c(C)nn(-c2ccccc2)c1Oc1cccc(F)c1)CC1CC1 | -6 | 0.94
19 | C=CCN(Cc1ccccc1)S(=O)(=O)C(C)(C)C | -11 | 1.83
20 | Cn1cccc1C(=O)CN1C(=O)NC2(CCCCCCC2)C1=O | -4 | 0.63
21 | O=C(O)COc1ccccc1CN1CCO[C@H]2CCCC[C@@H]21 | -10 | 1.37
22 | Cc1ccc(F)cc1S(=O)(=O)N1CC(F)(F)C[C@H]1CN1CCc2ccccc2C1 | -7 | 1.21
23 | CO/C=C(\Oc1ccccc1C)C(=O)Nc1ccccc1Cl | -29 | 3.43
24 | CN(C)c1noc([C@H]2CCC(=O)N(C3CC3)[C@@H]2c2cncn2C)n1 | -8 | 1.5
25 | Cc1ccc2c(c1)C(=O)N1CCCC1C(=O)N2CC(=O)NCC1CCCO1 (centres undefined) | -1 | 0.1
26 | CCCNC(=O)CN(C)Cc1cn2cccc(C)c2n1 | -4 | 0.42

Row | Compound | % Inhibition [%] | Z score
27 | O=C(NCc1cccs1)N1CCCC1 | -15 | 1.97
28 | Cc1c(C(=O)N2C[C@@H](CN(C)C)C[C@H](CO)C2)n(C)c2c(C)cccc12 | -13 | 2.26
29 | Cc1ncc(CNC(=O)C(=O)Nc2cc(F)cc(F)c2)s1 | -2 | 0.39
30 | Cc1cccc(CN2CCC[C@@]3(CCN(C(=O)CCCn4cncn4)C3)C2)c1 | -24 | 2.09
31 | Cn1cccc1C1=NN(C(=O)CN(CCN2CCOCC2)C(=O)NC(C)(C)C)[C@H](c2ccc3c(c2)OCO3)C1 | -10 | 1.7
32 | COC(=O)c1cc2c(cc1NC(=O)C1CCCCC1)OCO2 | -10 | 1.09
33 | Cc1nc(C)c(F)c(NCC2(O)CCS(=O)(=O)CC2)n1 | -7 | 0.96
34 | Cc1cc(F)ccc1S(=O)(=O)N1CCn2nccc2C1 | -3 | 0.49
35 | CCc1ccc([C@@H]2COCCN2CCS(C)(=O)=O)o1 | -7 | 0.89
36 | O=C1CCCN1CCCN(CC(=O)N1CCNCC1)C(=O)c1ccc(C(F)(F)F)cc1 | -6 | 0.56
37 | Cc1cccc([C@H](CNC(=O)CCN2CCCCC2=O)N(C)C)c1 | -11 | 2.04
38 | C[C@@H](c1cccc(-c2ccncc2)c1)N(C)CCn1cccn1 | -7 | 0.98
39 | CC(C)NS(=O)(=O)N1CCN(C(=O)N[C@@H](C2CC2)C(F)(F)F)CC1 | 2 | -0.34
40 | COc1ccc(-c2cnnc(-n3nc(C)c4c3NC(=O)C[C@@H]4c3ccccc3Br)n2)cc1 | 10 | -1.84
41 | O=c1ccncn1CC1CCN(c2ncnc3[nH]cnc23)CC1 | -2 | 0.25
42 | Cc1ccc(C(=O)N(C2CC2)C2CCN(C(=O)OC(C)(C)C)CC2)cc1S(C)(=O)=O | 6 | -1.04
43 | CCOc1cccc(-c2noc(Cn3c(=O)n(CCc4ccccc4)c(=O)c4sccc43)n2)c1 | -10 | 1.25
44 | Cc1nonc1CC(=O)NCc1nc2c(C)cccc2o1 | -5 | 0.85
45 | O=C(NCc1cccc(F)c1)c1cnn2c3c(cnc12)CCCCCC3 | -4 | 0.64
46 | CC(C)NC(=O)C(C)Oc1ccc2c(c1)C(c1ccc(F)cc1)N(C(=O)C(C)C)CC2 (centres undefined) | 7 | -0.9
47 | COCCn1cncc1Cn1c(=O)n(CC2CC2)c2ccc(C(=O)O)cc21 | 5 | -0.7
48 | CN(C(=O)OC(C)(C)C)[C@@H](C(=O)O)c1cccc(Cl)c1Cl | 5 | -0.75
49 | Fc1ccc(C#Cc2cncc(C#Cc3ccc(F)cc3)c2)cc1 | -7 | 0.98
50 | CN1C(=O)[C@H](c2c(-c3ccc(Cl)cc3)[nH]c3[nH]c(=O)[nH]c(=O)c23)c2ccccc21 | -1 | 0.16
51 | CC1(C)CC(NC(=O)c2ccc3[nH]c4c(c3c2)CCCC4)CC(C)(C)N1 | -3 | 0.35
52 | C=C(C)C[C@H](C)C(=O)Nc1ccc(CO)c(CO)c1 | -15 | 2.91
